From the supplement of paper PMC8728848
The list shows a part of the results.

Legend:
Assay in all cases: glycan array binding signal (z-score within array); higher = stronger binding
Conditions in all cases: glycan notation: IUPAC condensed, linker removed
[1] = molecular target: Fuc(a1-3)[Gal3S(b1-4)]GlcNAc6S
How it was run: (§1)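 Columns mapping to the same glycan were averaged after glycan names were converted to IUPAC-condensed notation. The data come from 3228 arrays in the Consortium for Functional Glycomics database, limited to those with an available protein sequence. Binding is reported as a within-array Z-score averaged across arrays of one protein sequence and across linkers.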

[2] = molecular target: Fuc(a1-3)[GalNAc(b1-4)]GlcNAc
How it was run: as §1

[3] = molecular target: Fuc(a1-3)[GalNAc(b1-4)]GlcNAc6S
How it was run: as §1

Fuc(a1-4)GlcNAc = molecular target: Fuc(a1-4)GlcNAc
How it was run: as §1

Fuc(b1-3)GlcNAc = molecular target: Fuc(b1-3)GlcNAc
How it was run: as §1

Gal(a1-2)Gal = molecular target: Gal(a1-2)Gal
How it was run: as §1

Gal(a1-3)Gal = molecular target: Gal(a1-3)Gal
How it was run: as §1

Gal(a1-3)Gal(b1-3)GlcNAc = molecular target: Gal(a1-3)Gal(b1-3)GlcNAc
How it was run: as §1

[4] = molecular target: Gal(a1-3)Gal(b1-3)GlcNAc(b1-2)Man
How it was run: as §1

[5] = molecular target: Gal(a1-3)Gal(b1-3)GlcNAc(b1-2)Man(a1-3)[Gal(a1-3)Gal(b1-3)GlcNAc(b1-2)Man(a1-6)]Man(b1-4)GlcNAc(b1-4)GlcNAc
How it was run: as §1

[6] = molecular target: Gal(a1-3)Gal(b1-3)GlcNAc(b1-3)GalNAc
How it was run: as §1

[7] = molecular target: Gal(a1-3)Gal(b1-3)GlcNAc(b1-6)GalNAc
How it was run: as §1

[8] = molecular target: Gal(a1-3)Gal(b1-3)[Fuc(a1-4)]GlcNAc(b1-2)Man(a1-3)[Gal(a1-3)Gal(b1-3)[Fuc(a1-4)]GlcNAc(b1-2)Man(a1-6)]Man(b1-4)GlcNAc(b1-4)GlcNAc
How it was run: as §1

Gal(a1-3)Gal(b1-4)Glc = molecular target: Gal(a1-3)Gal(b1-4)Glc
How it was run: as §1

Gal(a1-3)Gal(b1-4)GlcNAc = molecular target: Gal(a1-3)Gal(b1-4)GlcNAc
How it was run: as §1

[9] = molecular target: Gal(a1-3)Gal(b1-4)GlcNAc(b1-2)Man
How it was run: as §1

[10] = molecular target: Gal(a1-3)Gal(b1-4)GlcNAc(b1-2)Man(a1-3)[Gal(a1-3)Gal(b1-4)GlcNAc(b1-2)Man(a1-6)]Man(b1-4)GlcNAc(b1-4)GlcNAc
How it was run: as §1

[11] = molecular target: Gal(a1-3)Gal(b1-4)GlcNAc(b1-3)GalNAc
How it was run: as §1

[12] = molecular target: Gal(a1-3)Gal(b1-4)GlcNAc(b1-6)GalNAc
How it was run: as §1

[13] = molecular target: Gal(a1-3)Gal(b1-4)[Fuc(a1-3)]GlcNAc
How it was run: as §1

[14] = molecular target: Gal(a1-3)Gal(b1-4)[Fuc(a1-3)]GlcNAc(b1-2)Man(a1-3)[Gal(a1-3)Gal(b1-4)[Fuc(a1-3)]GlcNAc(b1-2)Man(a1-6)]Man(b1-4)GlcNAc(b1-4)GlcNAc
How it was run: as §1

Gal(a1-3)GalNAc = molecular target: Gal(a1-3)GalNAc
How it was run: as §1

[15] = molecular target: Gal(a1-3)[Gal(a1-4)]Gal(b1-4)GlcNAc
How it was run: as §1

[16] = molecular target: Gal(a1-4)Gal(b1-3)GlcNAc(b1-2)Man(a1-3)[Gal(a1-4)Gal(b1-3)GlcNAc(b1-2)Man(a1-6)]Man(b1-4)GlcNAc(b1-4)GlcNAc
How it was run: as §1

Gal(a1-4)Gal(b1-4)Glc = molecular target: Gal(a1-4)Gal(b1-4)Glc
How it was run: as §1

Gal(a1-4)Gal(b1-4)GlcNAc = molecular target: Gal(a1-4)Gal(b1-4)GlcNAc
How it was run: as §1

[17] = molecular target: Gal(a1-4)Gal(b1-4)GlcNAc(b1-2)Man(a1-3)[Gal(a1-4)Gal(b1-4)GlcNAc(b1-2)Man(a1-6)]Man(b1-4)GlcNAc(b1-4)GlcNAc
How it was run: as §1

[18] = molecular target: Gal(a1-4)Gal(b1-4)GlcNAc(b1-3)Gal(b1-4)Glc
How it was run: as §1

Gal(a1-4)GlcNAc = molecular target: Gal(a1-4)GlcNAc
How it was run: as §1

Gal(a1-6)Glc = molecular target: Gal(a1-6)Glc
How it was run: as §1

Gal(b1-2)Gal = molecular target: Gal(b1-2)Gal
How it was run: as §1

Gal(b1-3)Gal = molecular target: Gal(b1-3)Gal
How it was run: as §1

Gal(b1-3)Gal(b1-4)GlcNAc = molecular target: Gal(b1-3)Gal(b1-4)GlcNAc
How it was run: as §1

Gal(b1-3)GalNAc = molecular target: Gal(b1-3)GalNAc
How it was run: as §1

[19] = molecular target: Gal(b1-3)GalNAc(a1-3)[Fuc(a1-2)]Gal(b1-4)Glc
How it was run: as §1

[20] = molecular target: Gal(b1-3)GalNAc(a1-3)[Fuc(a1-2)]Gal(b1-4)GlcNAc
How it was run: as §1

Gal(b1-3)GalNAc(b1-3)Gal = molecular target: Gal(b1-3)GalNAc(b1-3)Gal
How it was run: as §1

B1: SP16664D-bth-476-27-476 (Bacteroides thetaiotaomicron) (protein)
chain: DDLEVGKNIDESAYSGIYENNAYLRDGKSNLVSKVVELHGETYATTVKMGLSKTPNTATSAKVKIDAAYLETYNKAHNTDFALYPQDLVTFANEGILTVNANTKSAEVEMTIRAGEGLQEDKTYAIPVAISDQSSDITIKDEDAKHCIYLVKDMRNAGDAYKGEGVMQGYLFFEVNDVNPLNTLSFQLENGKLLWDVVVLFAANINYDAEAGRPRVQCNPNVQYLLDNNETLLQPLRRRGVKVLLGLLGNHDITGLAQLSEQGAKDFAREVAQYCKAYNLDGVNYDDEYSNSPDLSNPSLTNPSTAAAARLCYETKQAMPDKLVTVFDWGQMYGVATVDGVDAKEWIDIVVANYGSAAYPIGQMTKKQCSGISMEFNLGGGGSLSASKAQSMIDGGYGWFMGFAPSPAKYGSVFSRLQGGGEVLYGSNVAAPTIFYKKNDPTPYKYPDDL
glycan array binding signal (z-score) [1]: 0.051
glycan array binding signal (z-score) [2]: 0.226
glycan array binding signal (z-score) [3]: 0.153
glycan array binding signal (z-score) (Fuc(a1-4)GlcNAc): 5.19
glycan array binding signal (z-score) (Fuc(b1-3)GlcNAc): -0.141
glycan array binding signal (z-score) (Gal(a1-2)Gal): -0.178
glycan array binding signal (z-score) (Gal(a1-3)Gal): 0.512
glycan array binding signal (z-score) (Gal(a1-3)Gal(b1-3)GlcNAc): 0.314
glycan array binding signal (z-score) [4]: 0.085
glycan array binding signal (z-score) [5]: -0.009
glycan array binding signal (z-score) [6]: -0.337
glycan array binding signal (z-score) [7]: -0.009
glycan array binding signal (z-score) [8]: -0.145
glycan array binding signal (z-score) (Gal(a1-3)Gal(b1-4)Glc): -0.117
glycan array binding signal (z-score) (Gal(a1-3)Gal(b1-4)GlcNAc): -0.212
glycan array binding signal (z-score) [9]: -0.136
glycan array binding signal (z-score) [10]: 0.219
glycan array binding signal (z-score) [11]: -0.12
glycan array binding signal (z-score) [12]: -0.225
glycan array binding signal (z-score) [13]: -0.017
glycan array binding signal (z-score) [14]: -0.18
glycan array binding signal (z-score) (Gal(a1-3)GalNAc): 0.453
glycan array binding signal (z-score) [15]: 0.109
glycan array binding signal (z-score) [16]: -0.227
glycan array binding signal (z-score) (Gal(a1-4)Gal(b1-4)Glc): -0.388
glycan array binding signal (z-score) (Gal(a1-4)Gal(b1-4)GlcNAc): -0.17
glycan array binding signal (z-score) [17]: -0.016
glycan array binding signal (z-score) [18]: -0.292
glycan array binding signal (z-score) (Gal(a1-4)GlcNAc): 0.125
glycan array binding signal (z-score) (Gal(a1-6)Glc): -0.295
glycan array binding signal (z-score) (Gal(b1-2)Gal): -0.289
glycan array binding signal (z-score) (Gal(b1-3)Gal): -0.191
glycan array binding signal (z-score) (Gal(b1-3)Gal(b1-4)GlcNAc): 0.095
glycan array binding signal (z-score) (Gal(b1-3)GalNAc): -0.171
glycan array binding signal (z-score) [19]: -0.047
glycan array binding signal (z-score) [20]: -0.433
glycan array binding signal (z-score) (Gal(b1-3)GalNAc(b1-3)Gal): -0.348
